Measured values from publication PMC4336329 (PLoS ONE, 2015).
Out of some 310,000 compounds screened, about 14,000 (4.5%) showed an effect of 50% or more. The effect is printed as a negative number. Some of the results follow.

biological target: human ether-à-go-go-related gene (hERG) potassium channel (human, UniProt Q12809); assay: primary screen, population patch clamp on CHO cells stably expressing hERG
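Also: peak tail current of the secondary pulse compared with the same well before compound.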

human ether-à-go-go-related gene (hERG) potassium channel, sequence (Q12809 whole entry, looked up): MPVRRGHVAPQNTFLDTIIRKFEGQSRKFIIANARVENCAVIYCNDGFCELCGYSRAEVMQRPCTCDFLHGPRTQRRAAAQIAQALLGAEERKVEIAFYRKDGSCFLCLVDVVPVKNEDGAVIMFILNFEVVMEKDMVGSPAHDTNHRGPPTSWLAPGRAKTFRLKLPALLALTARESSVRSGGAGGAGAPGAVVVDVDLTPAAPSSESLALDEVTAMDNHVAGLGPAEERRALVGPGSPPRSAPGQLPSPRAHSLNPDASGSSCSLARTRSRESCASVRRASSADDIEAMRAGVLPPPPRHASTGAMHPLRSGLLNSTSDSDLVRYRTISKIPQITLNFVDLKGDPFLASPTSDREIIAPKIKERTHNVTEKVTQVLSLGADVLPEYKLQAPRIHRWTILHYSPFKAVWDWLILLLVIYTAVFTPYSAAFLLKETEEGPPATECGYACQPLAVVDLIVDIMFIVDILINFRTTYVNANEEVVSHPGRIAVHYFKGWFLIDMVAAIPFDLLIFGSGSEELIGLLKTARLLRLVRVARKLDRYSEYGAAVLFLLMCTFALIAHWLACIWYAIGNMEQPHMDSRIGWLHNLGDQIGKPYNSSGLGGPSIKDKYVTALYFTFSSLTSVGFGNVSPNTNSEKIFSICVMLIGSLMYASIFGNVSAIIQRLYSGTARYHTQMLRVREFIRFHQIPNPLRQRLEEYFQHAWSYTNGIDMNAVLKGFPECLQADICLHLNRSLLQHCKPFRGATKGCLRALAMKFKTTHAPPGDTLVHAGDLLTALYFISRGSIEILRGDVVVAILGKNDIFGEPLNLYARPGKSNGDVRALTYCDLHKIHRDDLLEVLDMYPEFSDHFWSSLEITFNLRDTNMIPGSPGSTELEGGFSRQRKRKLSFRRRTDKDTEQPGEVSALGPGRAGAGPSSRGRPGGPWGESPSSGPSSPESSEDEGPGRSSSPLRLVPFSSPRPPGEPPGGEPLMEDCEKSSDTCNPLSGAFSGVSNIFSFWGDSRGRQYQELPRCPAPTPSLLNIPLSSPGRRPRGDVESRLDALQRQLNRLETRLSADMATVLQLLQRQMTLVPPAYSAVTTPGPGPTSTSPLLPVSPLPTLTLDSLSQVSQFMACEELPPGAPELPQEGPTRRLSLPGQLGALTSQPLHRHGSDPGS

Compound	hERG current change (%, negative = inhibition) at 10uM
O=C(Cc1c(F)cccc1Cl)N1CCCC1	16.2%
O=C(c1ccccc1)c1ccc2nc[nH]c2c1	0.168%
O=C(Nc1ccc(N2CCN(C(=O)c3ccc(Cl)cc3)CC2)cc1)c1cc2ccccc2o1	-0.396%
CC(=O)Nc1ccc(-c2ccc3nnc(C)n3n2)cc1	6.66%
O=C(NC1CCCCC1)[C@H](CSCc1ccccc1)N1Cc2ccccc2C1=O	-44.6%
COCCNC(=O)CN(c1ccccc1OC)S(C)(=O)=O	6.15%
CCCCCCn1c(O)c(C=NC2CCCCC2N)c(=O)[nH]c1=O (stereo not drawn)	1.62%
c1ccc2c(c1)ncn2-c1ccc(-c2ccnc(-c3ccncc3)n2)cc1	-17.5%
S=c1[nH]nc(-c2ccc3ccccc3n2)n1-c1cc(Cl)cc(Cl)c1	8.25%
CCOC(=O)c1c(NC(=O)CN2CCCc3ccccc32)sc(C)c1C	9.19%
O=C(Cc1ccc(S(=O)(=O)N2CCOCC2)s1)Nc1nc2c(s1)CCCC2	1.37%
COc1ccc(-c2nnc(-c3ccccc3O)o2)cc1	17%
CCC1=NN(C(=O)Cc2ccccc2)C(O)(c2ccncc2)C1 (stereo not drawn)	28.9%
NS(=O)(=O)c1ccc(NC(=O)c2ccc(CNS(=O)(=O)c3cc(C(F)(F)F)ccc3Cl)cc2)cc1	14.1%
O=C(NC1CCCCC1)C1Cc2ccccc2CN1S(=O)(=O)c1ccc(F)cc1 (stereo not drawn)	-21%
CC1CCN(C(=O)Cn2ncc3c4ccccc4n(C)c3c2=O)CC1	-3.92%
CC(=O)N/C(=C\c1ccc(C)cc1)C(=O)O	5.32%
COc1ccc(/C(C)=N/NC(=S)NCCc2ccccc2)c(O)c1	18.9%
O=C(/C=C/c1ccc([N+](=O)[O-])cc1)NCc1ccc2c(c1)OCO2	10.7%
NNC(=O)Cc1cn(-c2ncc(C(F)(F)F)cc2Cl)c2ccccc12	-23.1%
C/C(=N\NC(=O)c1cccc(S(=O)(=O)Nc2ccccc2Cl)c1)c1ccco1	-8.49%
O=c1ccc(Cl)n[nH]1	18.1%
CC(=O)N1CCC(CCCC2CCN(C(C)=O)CC2)CC1	5.66%

Compound	hERG current change (%, negative = inhibition) at 10uM
COc1ccc(C(C(=O)NC2CCCC2)N(CCO)C(=O)Cn2nnc(-c3ccc(C)o3)n2)cc1 (stereo not drawn)	7.13%
CCNC(=O)c1ccccc1SCC(=O)Nc1ccc(F)cc1	-1.03%
COc1ccc(C(CNC(=O)Nc2ccccc2)N2CCN(C)CC2)cc1 (stereo not drawn)	-12.8%
CCCn1nnnc1SCC(=O)N1CCCCC1	18.7%
O=C(COC(=O)c1ccccc1O)Nc1cccc(S(=O)(=O)NC2=NCCCCC2)c1	-2.03%
CCOc1ccc(NC(=S)NC(=O)c2ccco2)cc1	13.6%
COc1ccc(N2C(=O)CCC2=O)c(OC)c1	20.7%
CSc1ccc(CCNC(=O)C2CCCN(c3nn4c(=O)cc(C)nc4s3)C2)cc1 (stereo not drawn)	-35.1%
COc1ccccc1N1CCN(C(=O)CSc2nc3ccccc3c(=O)n2CC2CCCO2)CC1 (stereo not drawn)	-67.6%
CCOc1nc(N2CCOCC2)nc(N2CCOCC2)n1	55.2%
CCCn1nnnc1NC(=O)COc1ccc(Cl)cc1C	-0.704%
CCOC(=O)N1CCN(C(=O)CCN2C(=O)COc3ccccc32)CC1	0.87%
Cc1cc(C)nc(Nc2ccc(C)c([N+](=O)[O-])c2)n1	22.2%
CN1OC(COC(=O)c2ccc(Cl)cc2Cl)CC1c1ccccc1 (stereo not drawn)	9.07%
COc1ccc(N2C(=O)C(CC(=O)Nc3ccccc3)N(Cc3cccs3)C2=O)cc1 (stereo not drawn)	-4.12%
CC(C)(C)OC(=O)NCCCCCO	6.77%
O=S(=O)(c1ccc(N2CCN(Cc3ccccc3)CC2)nc1)N1CCCC1	-14.8%
CN(C)CCCNC(=O)c1ccc(Oc2ccccc2)cc1.Cl	22.6%
Cc1cc(OCCCCn2ccnc2)cc(C)c1Cl.Cl	-31%
CC1=CC(=C(C#N)C#N)C=C(C)N1Cc1ccccc1	12.3%
COc1ccc(-c2nc(CS(=O)CC(=O)NC3CCCC(C)C3C)c(C)o2)cc1OC (stereo not drawn)	7.15%
CN(Cc1nccn1C)C(=O)c1cc(COc2cccc(C(F)(F)F)c2)on1	-13.8%
